68 compounds from the supplement of paper PMC9446081 can be followed below.

Structures are written as SMILES. In all, about 39,000 compounds went through this assay and about 220 (0.56%) showed activity. This is one part of the list.
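Note: static incubation at 37 °C against the wild-type strain, values averaged over two biological replicates.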

This test deals with Escherichia coli K-12 BW25113. Kind of test: relative growth (OD600 normalised to plate interquartile mean) (fraction); higher = less growth inhibition, active = 0.2 or less. The note with it: 50 µM; LB; incubation time: overnight (16-24 h).
With `C[C@H](CO)N1C[C@H](C)[C@@H](CN(C)S(C)(=O)=O)Oc2cc(-c3cccc(F)c3)ccc2S1(=O)=O`, the relative growth was inactive: 1.

Take `CCN(CC)CCNC(C(=O)OCCC(C)C)c1ccccc1.Cl.Cl` (stereo not drawn): the relative growth was inactive: 1.16.

Regarding `COc1ccc(S(=O)(=O)N(C)C[C@@H]2Oc3c(NS(C)(=O)=O)cccc3C(=O)N([C@@H](C)CO)C[C@H]2C)cc1`, the relative growth is inactive: 0.992.

On to `Cc1noc(C)c1S(=O)(=O)Nc1ccc2c(c1)C(=O)N([C@H](C)CO)C[C@H](C)[C@@H](CN(C)S(=O)(=O)c1ccc(F)cc1)O2`, for which the relative growth was inactive: 1.02.

As to `c1ccc2c(c1)Cn1nnnc1-2`, the relative growth is inactive: 1.03.

As to `Cc1noc(C)c1S(=O)(=O)N(C)C[C@@H]1Oc2ccc(NC(=O)C3CCCCC3)cc2CC(=O)N([C@H](C)CO)C[C@@H]1C`, the relative growth was inactive: 0.989.

For the compound `CC(=O)OC[C@H]1O[C@H](C/C=N/O[C@H](C)c2cn([C@@H]3COC[C@H]3O)nn2)C=C[C@@H]1OC(C)=O`, the relative growth is inactive: 1.

As for `O=C1CCNCCN1`, the relative growth is inactive: 1.03.

For `COc1ccc(NC(=O)N(C)C[C@H]2OCCCC[C@H](C)Oc3ccc(NS(=O)(=O)c4ccc(C)cc4)cc3C(=O)N([C@@H](C)CO)C[C@H]2C)cc1`, the relative growth is inactive: 1.02.

Turning to `Cc1ccc(S(=O)(=O)Nc2ccc3c(c2)C(=O)N([C@@H](C)CO)C[C@@H](C)[C@@H](CN(C)S(=O)(=O)c2ccc(C)cc2)OCCCC[C@@H](C)O3)cc1`, the relative growth was inactive: 1.

As to `C[C@@H]1CN([C@@H](C)CO)C(=O)c2cc(NC(=O)Nc3ccc4c(c3)OCO4)ccc2O[C@@H]1CN(C)C(=O)Nc1cccc2ccccc12`, the relative growth is inactive: 1.03.

In the case of `C[C@@H]1CN([C@@H](C)CO)S(=O)(=O)c2ccc(Br)cc2O[C@@H]1CN(C)Cc1ccc(C(=O)O)cc1`, the relative growth was inactive: 0.985.

For the compound `C[C@H]1CN([C@@H](C)CO)C(=O)c2cccc(NC(=O)Nc3ccc4c(c3)OCO4)c2O[C@H]1CN(C)Cc1ccc(Oc2ccccc2)cc1`, the relative growth was inactive: 0.961.

On to `CN1CCN2c3ccccc3Cc3ccccc3C2C1.Cl` (stereo not drawn), for which the relative growth was inactive: 1.03.

Regarding `O=c1[nH]c2ccsc2c(=O)n1CCO`, the relative growth was inactive: 0.976.

On to `O=C(NCCN1CCCC1)[C@H]1[C@H](CO)[C@H]2Cn3c(cccc3=O)[C@@H]1N2C(=O)c1ccccc1`, for which the relative growth is inactive: 0.992.

On to `C[C@@H]1CN([C@H](C)CO)C(=O)c2cccc(NS(=O)(=O)c3cccs3)c2O[C@H]1CN(C)CC1CC1`, for which the relative growth was inactive: 0.885.

On to `C[C@@H]1CN([C@H](C)CO)C(=O)c2cccc(NC(=O)Nc3cccc4ccccc34)c2O[C@@H]1CN(C)S(=O)(=O)c1ccccc1`, for which the relative growth is inactive: 0.995.

Regarding `C[C@@H]1CCCCO[C@H](CN(C)C(=O)c2ccccc2)[C@@H](C)CN([C@@H](C)CO)C(=O)c2cc(NC(=O)Nc3ccc(C(F)(F)F)cc3)ccc2O1`, the relative growth was inactive: 1.04.

`C[C@@H]1CN([C@@H](C)CO)C(=O)c2cccc(NC(=O)C3CCOCC3)c2O[C@@H]1CN(C)C(=O)NC1CCCCC1`: the relative growth is inactive: 0.973.

`C[C@H](CO)N1C[C@H](C)[C@@H](CN(C)Cc2ccc(-c3ccccc3)cc2)Oc2c(NC(=O)C3CC3)cccc2C1=O`: the relative growth was inactive: 1.02.

Turning to `Nc1cnc(Cl)cn1`, the relative growth is inactive: 0.99.

Turning to `COc1ccc(S(=O)(=O)Nc2ccc3c(c2)C(=O)N([C@H](C)CO)C[C@@H](C)[C@H](CN(C)C(=O)c2ccccc2)OCCCC[C@@H](C)O3)cc1`, the relative growth is inactive: 1.

With `C[C@@H]1CN([C@@H](C)CO)C(=O)Cc2cc(NC(=O)Nc3ccc(C(F)(F)F)cc3)ccc2O[C@@H]1CN(C)C(=O)Nc1ccc(F)cc1`, the relative growth is inactive: 1.02.

For `Cc1cc2c(s1)Nc1ccccc1N=C2N1CCN(C)CC1`, the relative growth is inactive: 0.929.

Turning to `c1ccc(C2=Nc3ccccc3N=C(c3ccccc3)C2)cc1`, the relative growth is inactive: 0.936.

With `CCN(CC)CCOC(=O)c1ccc(N)cc1.Cl`, the relative growth was inactive: 1.08.

Consider `C[C@@H]1CN([C@@H](C)CO)C(=O)c2cccc(NC(=O)c3ccc(-c4nccs4)cc3)c2O[C@H]1CN(C)C(=O)NC1CCCCC1`, for which the relative growth is inactive: 0.999.

As to `C[C@H](CO)N1C[C@H](C)[C@H](CN(C)Cc2ccccc2)Oc2ccc(NC(=O)CCCCCC(=O)Nc3ccccc3N)cc2C1=O`, the relative growth was inactive: 0.995.

Consider `COc1ccc(NC(=O)Nc2ccc3c(c2)C(=O)N([C@H](C)CO)C[C@H](C)[C@H](CN(C)C(=O)C2CCCCC2)OCCCC[C@H](C)O3)cc1`, for which the relative growth was inactive: 1.04.

For `COc1ccc(NC(=O)N(C)C[C@@H]2Oc3ccc(NS(C)(=O)=O)cc3CC(=O)N([C@H](C)CO)C[C@@H]2C)cc1`, the relative growth was inactive: 0.996.

For `CCCCC/C=C\C/C=C\C/C=C\CCCCCCC(=O)O`, the relative growth was inactive: 0.9.

For `C[C@H](CO)N1C[C@H](C)[C@H](CN(C)Cc2ccc(C(F)(F)F)cc2)Oc2ccc(NC(=O)Nc3ccc4c(c3)OCO4)cc2CC1=O`, the relative growth was inactive: 1.06.

Take `C[C@@H]1CCCCO[C@@H](CN(C)C(=O)Nc2ccc(F)cc2)[C@H](C)CN([C@H](C)CO)C(=O)c2cc(NC(=O)c3ccccc3)ccc2O1`: the relative growth was inactive: 1.01.

Consider `C[C@@H]1CCCCO[C@H](CN(C)Cc2ccc(Cl)c(Cl)c2)[C@@H](C)CN([C@H](C)CO)C(=O)c2cc(NC(=O)CCCCCC(=O)Nc3ccccc3N)ccc2O1`, for which the relative growth is inactive: 0.943.

On to `COc1ccncc1N`, for which the relative growth was inactive: 0.981.

In the case of `C[C@H]1CN([C@@H](C)CO)C(=O)CCCn2cc(nn2)CO[C@H]1CN(C)S(=O)(=O)c1ccc2ccccc2c1`, the relative growth is inactive: 0.972.

For the compound `O=C1c2ccccc2C(=O)C1c1ccc(Br)cc1`, the relative growth was inactive: 1.07.

Regarding `C[C@H](CO)N1C[C@H](C)[C@@H](CN(C)Cc2ccccc2)Oc2c(NC(=O)CCCCCC(=O)Nc3ccccc3N)cccc2C1=O`, the relative growth is inactive: 1.03.

Take `NNC(=O)c1cccc(Cn2cccn2)c1`: the relative growth was inactive: 1.01.

Take `Cc1ccc(S(=O)(=O)Nc2ccc3c(c2)C(=O)N([C@@H](C)CO)C[C@@H](C)[C@@H](CN(C)C(=O)c2ccccc2)OCCCC[C@@H](C)O3)cc1`: the relative growth is inactive: 0.995.

In the case of `COc1ccc(S(=O)(=O)N(C)C[C@H]2Oc3cc(-c4ccccc4OC)ccc3S(=O)(=O)N([C@H](C)CO)C[C@H]2C)cc1`, the relative growth is inactive: 1.07.

As for `COC(=O)c1c(C)cc(OC)cc1O`, the relative growth was inactive: 0.904.

`C[C@@H]1CN([C@@H](C)CO)C(=O)c2cccc(NS(=O)(=O)c3ccccc3)c2O[C@@H]1CN(C)Cc1ccc(Oc2ccccc2)cc1`: the relative growth was inactive: 0.977.

On to `NC(=O)NCC#Cc1ccc2c(c1)[C@]1(C(=O)N2)[C@H](c2ccc(OCCO)cc2)N2[C@H](c3ccccc3)[C@H](c3ccccc3)OC(=O)[C@H]2[C@@H]1C(N)=O`, for which the relative growth is inactive: 1.04.

For the compound `NC[C@H](O)c1ccc(O)c(O)c1`, the relative growth was inactive: 1.

Consider `COC(=O)[C@@H]1[C@@H](c2ccc(OC)cc2)[C@H](C(=O)OC)S(=O)(=O)CS1(=O)=O`, for which the relative growth is inactive: 1.01.

For the compound `C[C@@H]1CCCCO[C@H](CN(C)C(=O)C2CCCCC2)[C@H](C)CN([C@H](C)CO)C(=O)c2cc(NC(=O)c3ccccc3)ccc2O1`, the relative growth is inactive: 1.02.

For `C=CCn1c(=O)c2c(OC)ccnc2n(C)c1=O`, the relative growth is inactive: 0.997.

As to `CN(C)CCOc1c(Br)cc(/C=C/C(=O)NCCCOc2c(Br)cc(CCN(C)C)cc2Br)cc1Br`, the relative growth is inactive: 0.991.

`O=C(C[C@@H]1C=C[C@@H](NC(=O)c2ccncc2)[C@H](CO)O1)NCc1ccncn1`: the relative growth was inactive: 1.

`CCOC(=O)C1CCN(C)CC1`: the relative growth was inactive: 1.01.

In the case of `C=C1c2cccc(O)c2C(=O)C2=C(O)C3(O)C(=O)C(C(N)=O)=C(O)C(N(C)C)C3C(O)C12.Cl` (stereo not drawn), the relative growth was active: 0.0546.

For `CC(C)(C)[S@](=O)N1Cc2cc(C(=O)NCCc3ccncc3)nc(-c3cccc(-c4ccc(C#N)cc4)c3)c2[C@@H]1CCO`, the relative growth was inactive: 1.

On to `CCS(=O)(=O)N[C@H]1C=C[C@@H](CC(=O)O)O[C@@H]1CO`, for which the relative growth was inactive: 0.983.

Take `Cc1noc(C)c1NC(=O)Nc1ccc2c(c1)C(=O)N([C@H](C)CO)C[C@@H](C)[C@H](CN(C)Cc1ccccc1)OCCCC[C@H](C)O2`: the relative growth is inactive: 1.01.

Consider `C[C@H]1CN([C@@H](C)CO)S(=O)(=O)c2ccc(Br)cc2O[C@H]1CN(C)C(=O)c1ccccc1F`, for which the relative growth is inactive: 0.996.

With `O=C(CN1CCOCC1)NCC[C@@H]1CC[C@H](NC(=O)Cc2ccccn2)[C@H](CO)O1`, the relative growth is inactive: 0.995.

Turning to `C[C@H](CO)N1C[C@H](C)[C@H](CN(C)C(=O)Nc2cccc3ccccc23)Oc2ncc(-c3ccccc3)cc2C1=O`, the relative growth was inactive: 1.

`C[C@@H]1CN([C@@H](C)CO)S(=O)(=O)c2ccc(C3=CCCC3)cc2O[C@@H]1CN(C)C(=O)c1cnccn1`: the relative growth is inactive: 0.988.

Consider `CN(C)CCCCNC(=O)[C@H]1C[C@H]2C(=O)NCC(=O)N2[C@H]1c1cccc(OCCO)c1`, for which the relative growth was inactive: 1.

`CC(C)(C)OC(=O)C[C@H]1CC=CC[C@@H](CC(=O)N[C@@H](CO)Cc2ccccc2)C(=O)N[C@@H](C(C)(C)C)COC1=O`: the relative growth is inactive: 0.999.

As for `Nc1nc(Cl)nc(Cl)n1`, the relative growth was inactive: 1.02.

Turning to `C[C@@H]1CN([C@@H](C)CO)C(=O)c2cc(NS(C)(=O)=O)ccc2O[C@@H]1CN(C)C(=O)Nc1ccc(C(F)(F)F)cc1`, the relative growth was inactive: 1.05.

As for `Cc1noc(C)c1NC(=O)N(C)C[C@@H]1Oc2ccc(NC(=O)Nc3cccc4ccccc34)cc2C(=O)N([C@H](C)CO)C[C@@H]1C`, the relative growth was inactive: 1.01.

Turning to `Nn1nnc2ccccc21`, the relative growth was inactive: 0.973.

With `C[C@H](CO)N1C[C@H](C)[C@H](CN(C)Cc2ccc(C(=O)O)cc2)Oc2c(NC(=O)c3cnccn3)cccc2C1=O`, the relative growth is inactive: 0.984.

In the case of `O=C(O)CC1(n2cnnn2)CCSCC1`, the relative growth is inactive: 1.
